According to patent US4335244A, “Monolactate salts of 4'-(9-acridinylamino)methanesulfon-m-anisidide” (Bristol-Myers Company, priority 1980, dated 1982):

What was measured:
[1] = cited from earlier work

Row | SMILES | Water-solubility (in words) | Water-solubility (in words, prior art forms) [1]
1 | COc1cc(NS(C)(=O)=O)ccc1Nc1c2ccccc2nc2ccccc12 [Example 1, L(+)-Monolactate Hemiacetonate of m-AMSA] | sufficiently high water-solubility at room temperature | 
2 | COc1cc(NS(C)(=O)=O)ccc1Nc1c2ccccc2nc2ccccc12 [Example 4, m-AMSA Mono DL-Lactate Acetone Solvate] | sufficiently high water-solubility at room temperature | 
3 | COc1cc(NS(C)(=O)=O)ccc1Nc1c2ccccc2nc2ccccc12 [Example 10, m-AMSA D(-)-Monolactate Hemiacetonate] | sufficiently high water-solubility at room temperature | 
4 | COc1cc(NS(C)(=O)=O)ccc1Nc1c2ccccc2nc2ccccc12 [citrate, reference compound] | only slightly soluble in water | 
5 | COc1cc(NS(C)(=O)=O)ccc1Nc1c2ccccc2nc2ccccc12 [m-AMSA, 4'-(9-acridinylamino)methanesulfon-m-anisidide] |  | very limited solubility in water
